Measured values: article PMC9663306
These are yes or no findings as the source states them, for the method shown. Binding seen in cells or lysates may run through a third protein. Tags and fused reporters may be left off the sequences shown.

By UniProt entry, the sequences of proteins in these tests, tags left out.
UniProt Q8CJ61: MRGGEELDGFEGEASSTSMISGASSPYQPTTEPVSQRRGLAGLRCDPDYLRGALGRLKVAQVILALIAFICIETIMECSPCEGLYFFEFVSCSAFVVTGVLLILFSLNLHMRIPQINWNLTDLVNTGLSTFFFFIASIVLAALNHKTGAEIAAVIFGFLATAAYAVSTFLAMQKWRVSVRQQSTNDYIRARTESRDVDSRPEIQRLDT

Experiments:
Assay in all cases: co-IP; anti-FLAG M2 agarose IP from 1% DDM lysates of ST2 cells retrovirally transduced with an SF-tagged receptor, immunoblot for endogenous proteins; cells unstimulated (SF-IL-17RC also after IL-17A 500 ng/ml for 15 min, unchanged)
[1] = biological target: T1, SF-IL-17RE (murine IL-17RE with C-terminal 2xStrep-3xFlag tag) (mouse) (UniProt Q8BH06)
T1 sequence: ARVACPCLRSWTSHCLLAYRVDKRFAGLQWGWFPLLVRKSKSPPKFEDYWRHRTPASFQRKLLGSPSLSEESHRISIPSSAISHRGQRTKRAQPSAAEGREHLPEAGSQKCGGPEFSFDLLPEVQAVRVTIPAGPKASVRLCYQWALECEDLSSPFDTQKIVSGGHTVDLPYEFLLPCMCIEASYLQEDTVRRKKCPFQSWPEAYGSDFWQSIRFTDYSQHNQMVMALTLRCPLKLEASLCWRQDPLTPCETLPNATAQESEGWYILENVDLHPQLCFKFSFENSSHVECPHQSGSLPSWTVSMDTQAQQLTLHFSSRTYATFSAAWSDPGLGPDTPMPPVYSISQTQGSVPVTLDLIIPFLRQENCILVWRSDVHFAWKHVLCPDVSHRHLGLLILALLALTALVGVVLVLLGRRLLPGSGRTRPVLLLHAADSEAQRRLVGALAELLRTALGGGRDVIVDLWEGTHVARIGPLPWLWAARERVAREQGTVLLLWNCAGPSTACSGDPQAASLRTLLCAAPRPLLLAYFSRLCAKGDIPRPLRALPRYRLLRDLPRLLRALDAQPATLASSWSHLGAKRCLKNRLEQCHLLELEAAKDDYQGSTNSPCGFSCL

[2] = biological target: T2, SF-IL-17RB (murine IL-17RB with C-terminal 2xStrep-3xFlag tag) (mouse) (UniProt Q9JIP3)
T2 sequence: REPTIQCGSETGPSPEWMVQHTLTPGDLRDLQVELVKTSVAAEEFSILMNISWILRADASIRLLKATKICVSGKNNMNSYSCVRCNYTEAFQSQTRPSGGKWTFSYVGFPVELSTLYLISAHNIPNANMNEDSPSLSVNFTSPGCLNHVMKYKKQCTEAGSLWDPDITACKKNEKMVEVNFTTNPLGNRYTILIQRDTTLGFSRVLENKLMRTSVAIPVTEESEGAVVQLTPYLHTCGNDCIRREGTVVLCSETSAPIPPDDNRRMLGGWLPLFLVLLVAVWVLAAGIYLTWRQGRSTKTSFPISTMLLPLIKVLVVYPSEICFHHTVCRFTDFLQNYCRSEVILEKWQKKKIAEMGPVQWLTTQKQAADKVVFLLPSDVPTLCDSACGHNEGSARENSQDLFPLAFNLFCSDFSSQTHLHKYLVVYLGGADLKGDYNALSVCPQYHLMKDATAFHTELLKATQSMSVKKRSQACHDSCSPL

[3] = biological target: T3, SF-TNFR1 (murine TNF receptor 1 with C-terminal 2xStrep-3xFlag tag) (mouse) (UniProt P25118)
T3 sequence: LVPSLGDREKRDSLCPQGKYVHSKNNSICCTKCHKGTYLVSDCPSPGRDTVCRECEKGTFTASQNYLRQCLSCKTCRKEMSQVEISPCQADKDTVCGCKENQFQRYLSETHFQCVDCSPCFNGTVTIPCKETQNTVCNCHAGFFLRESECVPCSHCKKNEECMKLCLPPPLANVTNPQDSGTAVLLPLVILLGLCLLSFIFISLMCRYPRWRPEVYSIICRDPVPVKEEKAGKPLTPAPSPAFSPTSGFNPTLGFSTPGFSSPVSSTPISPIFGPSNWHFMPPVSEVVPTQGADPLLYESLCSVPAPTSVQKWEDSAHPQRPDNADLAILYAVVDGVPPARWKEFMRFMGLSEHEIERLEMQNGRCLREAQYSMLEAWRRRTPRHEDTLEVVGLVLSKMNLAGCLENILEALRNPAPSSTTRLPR

[4] = biological target: T4, SF-IL-17RD (murine IL-17RD with C-terminal 2xStrep-3xFlag tag) (mouse) (UniProt Q8JZL1)
T4 sequence: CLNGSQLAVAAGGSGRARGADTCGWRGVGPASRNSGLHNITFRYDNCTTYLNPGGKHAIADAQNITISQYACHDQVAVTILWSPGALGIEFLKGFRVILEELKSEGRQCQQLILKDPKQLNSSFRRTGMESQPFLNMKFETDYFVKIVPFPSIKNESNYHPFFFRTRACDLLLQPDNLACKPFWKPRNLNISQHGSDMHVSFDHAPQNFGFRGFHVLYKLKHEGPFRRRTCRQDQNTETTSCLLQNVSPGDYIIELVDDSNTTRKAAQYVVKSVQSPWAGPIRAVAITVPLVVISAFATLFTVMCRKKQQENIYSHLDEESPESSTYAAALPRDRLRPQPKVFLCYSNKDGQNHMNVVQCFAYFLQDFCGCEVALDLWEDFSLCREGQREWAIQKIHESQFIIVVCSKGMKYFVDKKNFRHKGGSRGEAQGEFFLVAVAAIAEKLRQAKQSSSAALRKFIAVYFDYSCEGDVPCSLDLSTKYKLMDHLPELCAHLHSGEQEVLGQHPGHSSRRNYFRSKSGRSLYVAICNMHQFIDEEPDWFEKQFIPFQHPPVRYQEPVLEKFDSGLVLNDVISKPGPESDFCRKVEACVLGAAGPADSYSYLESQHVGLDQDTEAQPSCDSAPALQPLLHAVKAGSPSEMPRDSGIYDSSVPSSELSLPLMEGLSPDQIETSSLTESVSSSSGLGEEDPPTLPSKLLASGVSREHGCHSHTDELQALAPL

Measured: binding

CMTM4 (endogenous, mouse ST2 cells) (from UniProt Q8CJ61 1-208)
no binding: all assays above
